# The supplement of paper PMC4166925
# ± gives the standard deviation of the averaged measurements. Whole data set: some 33,000 sequences, median “E-score (dimensionless, -0.5 to 0.5)” near -0.046, cut for the highest 2% near 0.36. Some of the results follow.
# Test system: T1, SpTbr T-box DNA-binding domain (GST fusion)
# T1 sequence: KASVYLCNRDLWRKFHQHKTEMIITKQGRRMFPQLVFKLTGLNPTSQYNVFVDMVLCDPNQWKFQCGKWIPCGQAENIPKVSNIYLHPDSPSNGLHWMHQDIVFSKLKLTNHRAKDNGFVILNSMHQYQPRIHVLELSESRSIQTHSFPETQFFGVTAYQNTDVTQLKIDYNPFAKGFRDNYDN
# Experiment: PBM E-score of 8-mer (E-score (dimensionless, -0.5 to 0.5)); Tbr is Tbrain of the sea star Patiria miniata (Pm) or the sea urchin Strongylocentrotus purpuratus (Sp); higher = stronger binding preference; most listed sequences are background and not binding sites
# Conditions: the construct has about 5 more residues each side
# Outline: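 Using the Universal PBM Analysis Suite, every ungapped 8-mer received an enrichment E-score averaged over duplicate arrays. Probe intensities came from double-stranded Universal Agilent oligonucleotide arrays incubated with 200 nM GST-fused Tbr T-box DNA-binding domain in PBS (pH 7.5). That protein was expressed in BL21 E. coli at 20 °C and purified by glutathione affinity chromatography.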
row,Sequence,PBM E-score of 8-mer
1,ACGGGCGG,-0.083 ± 0.0064
2,AGCATCGG,-0.198 ± 0.033
3,GGTTTCCA,-0.102 ± 0.013
4,CGTTAGCA,0.37 ± 0.0046
5,GACGAAAA,0.112 ± 0.0081
6,AGTTAGTA,-0.0829 ± 0.011
7,ACTGCTAC,-0.196 ± 0.0054
8,AGCCGGCT,-0.257 ± 0.054
9,AGGATCTG,-0.232 ± 0.014
10,CTTAGCCC,-0.0855 ± 0.09
11,GTTGTTAA,0.339 ± 0.034
12,CTTAGCAC,0.364 ± 0.0057
13,GCTATAAA,-0.0322 ± 0.11
14,CGTTCGTA,-0.134 ± 0.018
15,ACGTACCG,-0.195 ± 0.03
16,GAATGATC,0.000375 ± 0.062
17,AGGTACCT,-0.0731 ± 0.033
18,CCTGAATC,-0.0545 ± 0.033
19,TATGGAGA,-0.189 ± 0.055
20,GCTAAGAA,0.0676 ± 0.027
21,ACCATACA,-0.111 ± 0.023
22,CGTAAGAG,-0.124 ± 0.042

row,Sequence,PBM E-score of 8-mer
1,CAATATGG,0.0399 ± 0.04
2,AACCTACG,-0.159 ± 0.083
3,GTTTTGGA,-0.252 ± 0.0065
4,CTCGACAA,0.117 ± 0.049
5,ACCCGTGG,0.0269 ± 0.0032
6,ATCGATAA,0.0824 ± 0.0096
7,CAGAGCCA,-0.0586 ± 0.012
8,ATCCTTAC,0.051 ± 0.04
9,ATAGATGA,-0.0521 ± 0.016
10,CGGGCAAA,-0.205 ± 0.039
11,AGGCTTTA,-0.204 ± 0.094
12,ACACGGAA,-0.0377 ± 0.016
13,GTGAGCCA,0.0835 ± 0.052
14,ATAAATAA,-0.291 ± 0.031
15,CAATGGAA,-0.202 ± 0.08
16,CCTCTTCA,0.0934 ± 0.006
17,ATAAGTAA,0.0719 ± 0.015
18,CGGGATCC,-0.123 ± 0.05
19,CCGTGAAA,0.245 ± 0.022
20,CTTTACTA,-0.11 ± 0.025
21,AACTTGCA,0.107 ± 0.01
22,GCCCCTGA,-0.091 ± 0.031

row,Sequence,PBM E-score of 8-mer
1,ACGGTTTG,0.0561 ± 0.011
2,AATTAGCC,-0.0279 ± 0.041
3,AGATTATG,-0.283 ± 0.046
4,AGCGTGGG,-0.0733 ± 0.038
5,ACATCATA,0.0379 ± 0.084
6,CCATCCCC,-0.154 ± 0.021
7,CACATGCG,0.149 ± 0.019
8,CTCTTAGA,-0.2544 ± 0.0022
9,TCGTCACA,0.342 ± 0.027
10,AGAAAAAC,-0.181 ± 0.062
11,CCGGTCCC,-0.161 ± 0.13
12,ATTACGAG,-0.0203 ± 0.11
13,GTAACGAC,0.0962 ± 0.061
14,TACCAAAA,-0.0696 ± 0.058
15,CATTCTTC,0.0471 ± 0.049
16,CACTAGCA,0.164 ± 0.063
17,AGATACGA,-0.202 ± 0.073
18,ATGGGCTG,-0.158 ± 0.0039
19,TCGGCCAA,-0.0802 ± 0.029
20,CGAATGGC,0.079 ± 0.051
21,CAGGGACG,0.0426 ± 0.11
22,CAGCCCAA,-0.271 ± 0.026

row,Sequence,PBM E-score of 8-mer
1,CCCACTGC,-0.0959 ± 0.098
2,GGCCACGA,-0.172 ± 0.051
3,TAGCTCCA,-0.307 ± 0.041
4,CGAACCGA,0.187 ± 0.0096
5,AGTGGCGG,0.1831 ± 0.00086
6,TCGTGCCA,0.182 ± 0.0091
7,CCACTTTC,0.0779 ± 0.016
8,AATCACCA,0.0402 ± 0.041
9,ACAGGCCC,-0.218 ± 0.066
10,AACTAAAT,-0.0624 ± 0.017
11,CTGACTGC,-0.133 ± 0.0049
12,GTGGAGGA,0.142 ± 0.022
13,GACACGCC,0.258 ± 0.0053
14,AGCTGGTA,-0.035 ± 0.048
15,CTCAGTCA,0.0569 ± 0.064
16,GGAAATTA,-0.269 ± 0.011
17,TACTCAGA,0.0139 ± 0.058
18,ATTAGAGC,-0.25 ± 0.057
19,ACATCGAT,-0.0175 ± 0.055
20,ACTAAGGA,-0.291 ± 0.034
21,TCGCCCGA,-0.0252 ± 0.06
22,CGGATAGC,0.0476 ± 0.07

row,Sequence,PBM E-score of 8-mer
1,CCGTCAAA,0.179 ± 0.079
2,GATTTGAA,-0.13 ± 0.068
3,GAGAGCCC,-0.055 ± 0.00096
4,ACAGTCTG,-0.0797 ± 0.05
5,GAGCCAGA,-0.187 ± 0.076
6,TACGATAA,0.0515 ± 0.0021
7,CAAATTTC,-0.0243 ± 0.048
8,AACTCGCT,-0.0393 ± 0.016
9,AGCTCGCA,0.272 ± 0.011
10,GACCACTC,0.0231 ± 0.029
11,ACATACCG,0.00128 ± 0.051
12,AGCATCAT,-0.23 ± 0.027
13,AAAGGAAG,-0.0477 ± 0.021
14,GCCTGATA,-0.252 ± 0.072
15,CTCGCGAA,0.389 ± 0.012
16,GTACCTCA,0.149 ± 0.0072
17,CTAGGCAC,0.0675 ± 0.011
18,GGTAATTA,-0.0737 ± 0.011
19,GACATGAC,0.0522 ± 0.028
20,CCGAATTC,-0.158 ± 0.018
21,AAGCTCTA,-0.245 ± 0.027
22,ATCACGGG,0.0563 ± 0.045
